Values joined by “and” are separate entries in the source; they are usually repeats but may differ in a detail not shown here. Equal values may be shown once. Further values from the same series stand in other lists. Inconclusive results and toxic doses are left out.
System: P388 leukemia ip, CD2F1 mice, survival T/C
Experiment: NCI In Vivo Anticancer Drug Screen. Data for tumor model P388 Leukemia (intraperitoneal) in CD2F1 (CDF1) mice
Conditions: endpoint: median survival time, higher = longer survival
Description: The antitumor activity of compounds was measured in mice bearing transplantable tumors. Survival or tumor size were measured and the results are expressed as the measurement made in the treated group (T) divided by the measurement made in the vehicle treated control group (C). The tumor model used in this assay is P388 Leukemia (intraperitoneal) in CD2F1 (CDF1) mice

## COc1cccc2c1C(=O)c1c(O)c3c(c(O)c1C2=O)C[C@@](O)(C(C)=O)C[C@@H]3OC1CC(N)C(O)C(C)O1 (some centres undefined)
dose: 0.12 mg/kg/injection, schedule: Q04DX003 (ip), vehicle: saline
  T/C: 92 % of control
dose: 0.46 mg/kg/injection, schedule: Q01DX009 (ip), vehicle: water
  T/C: 163 % of control
dose: 0.5 mg/kg/injection, schedule: Q04DX003 (ip), vehicle: saline
  T/C: 178 % of control
dose: 0.5 mg/kg/injection, schedule: Q04DX003 (iv), vehicle: saline
  T/C: 97 % of control
dose: 0.63 mg/kg/injection, schedule: Q01DX005 (ip), vehicle: saline
  T/C: 176 % of control
dose: 0.65 mg/kg/injection, schedule: Q01DX009 (ip), vehicle: saline
  T/C: 177 % of control
dose: 0.69 mg/kg/injection, schedule: Q01DX009 (ip), vehicle: water
  T/C: 166 % of control
dose: 0.75 mg/kg/injection, schedule: Q04DX003 (ip), vehicle: water
  T/C: 119 % of control
dose: 0.78 mg/kg/injection, schedule: Q01DX009 (ip), vehicle: saline
  T/C: 162 % of control
dose: 1.0 mg/kg/injection, schedule: Q04DX003 (ip), vehicle: saline
  T/C: 200 % of control
dose: 1.0 mg/kg/injection, schedule: Q04DX003 (ip), vehicle: water
  T/C: 117 % of control and 114 % of control and 118 % of control
dose: 1.04 mg/kg/injection, schedule: Q01DX009 (ip), vehicle: water
  T/C: 166 % of control
dose: 1.17 mg/kg/injection, schedule: Q04DX003 (ip), vehicle: water
  T/C: 104 % of control
dose: 1.25 mg/kg/injection, schedule: Q01DX001 (ip), vehicle: saline
  T/C: 178 % of control
dose: 1.3 mg/kg/injection, schedule: Q01DX001 (ip), vehicle: water
  T/C: 110 % of control
dose: 1.5 mg/kg/injection, schedule: Q04DX003 (ip), vehicle: water
  T/C: 119 % of control
dose: 1.56 mg/kg/injection, schedule: Q01DX009 (ip), vehicle: saline
  T/C: 182 % of control
dose: 1.56 mg/kg/injection, schedule: Q01DX009 (ip), vehicle: water
  T/C: 173 % of control and 194 % of control
dose: 1.56 mg/kg/injection, schedule: Q04DX003 (ip), vehicle: saline
  T/C: 187 % of control
dose: 1.8 mg/kg/injection, schedule: Q01DX001 (ip), vehicle: water
  T/C: 110 % of control
dose: 2.0 mg/kg/injection, schedule: Q03HX008 (ip), vehicle: saline
  T/C: 90 % of control
dose: 2.0 mg/kg/injection, schedule: Q04DX003 (ip), vehicle: saline
  T/C: 118 % of control
dose: 2.0 mg/kg/injection, schedule: Q04DX003 (ip), vehicle: water
  T/C: 111 % of control and 118 % of control
dose: 2.34 mg/kg/injection, schedule: Q01DX009 (ip), vehicle: water
  T/C: 108 % of control
dose: 2.34 mg/kg/injection, schedule: Q04DX003 (ip), vehicle: water
  T/C: 104 % of control
dose: 2.4 mg/kg/injection, schedule: Q01DX001 (ip), vehicle: water
  T/C: 124 % of control
dose: 2.5 mg/kg/injection, schedule: Q01DX005 (ip), vehicle: saline
  T/C: 96 % of control
dose: 3.13 mg/kg/injection, schedule: Q01DX009 (ip), vehicle: water
  T/C: 90 % of control
dose: 3.13 mg/kg/injection, schedule: Q04DX003 (ip), vehicle: saline
  T/C: 197 % of control
dose: 3.2 mg/kg/injection, schedule: Q01DX001 (ip), vehicle: water
  T/C: 124 % of control
dose: 3.33 mg/kg/injection, schedule: Q01DX009 (ip), vehicle: water
  T/C: 83 % of control
dose: 3.5 mg/kg/injection, schedule: Q01DX001 (ip), vehicle: saline
  T/C: 177 % of control
dose: 4.0 mg/kg/injection, schedule: Q03HX024 (ip), vehicle: saline
  T/C: 190 % of control
dose: 4.0 mg/kg/injection, schedule: Q04DX003 (ip), vehicle: water
  T/C: 119 % of control and 122 % of control
dose: 4.68 mg/kg/injection, schedule: Q04DX003 (ip), vehicle: water
  T/C: 120 % of control
dose: 4.7 mg/kg/injection, schedule: Q04DX003 (ip), vehicle: water
  T/C: 114 % of control
dose: 5.0 mg/kg/injection, schedule: Q01DX009 (ip), vehicle: water
  T/C: 90 % of control
dose: 5.0 mg/kg/injection, schedule: Q03HX008 (ip), vehicle: saline
  T/C: 97 % of control
dose: 5.0 mg/kg/injection, schedule: Q04DX003 (ip), vehicle: saline
  T/C: 92 % of control
dose: 5.6 mg/kg/injection, schedule: Q01DX001 (ip), vehicle: water
  T/C: 124 % of control
dose: 6.0 mg/kg/injection, schedule: Q04DX003 (ip), vehicle: water
  T/C: 123 % of control
dose: 6.25 mg/kg/injection, schedule: Q01DX009 (ip), vehicle: water
  T/C: 155 % of control
dose: 6.25 mg/kg/injection, schedule: Q04DX003 (ip), vehicle: saline
  T/C: 185 % of control
dose: 6.66 mg/kg/injection, schedule: Q01DX009 (ip), vehicle: water
  T/C: 60 % of control
dose: 8.0 mg/kg/injection, schedule: Q03HX024 (ip), vehicle: saline
  T/C: 89 % of control
dose: 8.0 mg/kg/injection, schedule: Q04DX003 (ip), vehicle: saline
  T/C: 114 % of control
dose: 8.0 mg/kg/injection, schedule: Q04DX003 (ip), vehicle: water
  T/C: 113 % of control
dose: 12.0 mg/kg/injection, schedule: Q04DX003 (ip), vehicle: water
  T/C: 122 % of control
dose: 12.5 mg/kg/injection, schedule: Q01DX001 (ip), vehicle: water
  T/C: 110 % of control
dose: 12.5 mg/kg/injection, schedule: Q01DX009 (ip), vehicle: water
  T/C: 173 % of control
dose: 13.3 mg/kg/injection, schedule: Q01DX001 (ip), vehicle: saline
  T/C: 86 % of control
dose: 16.0 mg/kg/injection, schedule: Q04DX003 (ip), vehicle: saline
  T/C: 116 % of control and 105 % of control
dose: 16.0 mg/kg/injection, schedule: Q04DX003 (ip), vehicle: water
  T/C: 123 % of control and 110 % of control and 95 % of control
dose: 16.0 mg/kg/injection, schedule: Q04DX003 (iv), vehicle: saline
  T/C: 95 % of control
dose: 18.7 mg/kg/injection, schedule: Q04DX003 (ip), vehicle: water
  T/C: 157 % of control
dose: 24.0 mg/kg/injection, schedule: Q04DX003 (ip), vehicle: water
  T/C: 96 % of control
dose: 25.0 mg/kg/injection, schedule: Q01DX001 (ip), vehicle: water
  T/C: 89 % of control
dose: 25.0 mg/kg/injection, schedule: Q01DX009 (ip), vehicle: water
  T/C: 231 % of control
dose: 25.0 mg/kg/injection, schedule: Q04DX003 (ip), vehicle: saline
  T/C: 91 % of control
dose: 32.0 mg/kg/injection, schedule: Q04DX003 (ip), vehicle: saline
  T/C: 106 % of control and 89 % of control
dose: 32.0 mg/kg/injection, schedule: Q04DX003 (ip), vehicle: water
  T/C: 111 % of control
dose: 37.5 mg/kg/injection, schedule: Q04DX003 (ip), vehicle: water
  T/C: 104 % of control
dose: 75.0 mg/kg/injection, schedule: Q04DX003 (ip), vehicle: water
  T/C: 98 % of control
dose: 31.3 micrograms/kg/injection, schedule: Q03HX024 (ip), vehicle: saline
  T/C: 175 % of control
